According to PubChem BioAssay AID1345082 (National Center for Advancing Translational Sciences (NCATS), 2018):
Among all 94,000 compounds or so, about 4,000 (4.3%) were called active. Inconclusive results, whose numbers are uncertain, are shown with a selection of clear calls. Calls come from the whole dose curve; as a rule, active = well fitted inhibition curve with a large enough effect; inconclusive = small, poorly fitted or top-dose-only effect; inactive = no such curve, though single readings can be large or run the other way. Potencies beside an inconclusive call are fits to weak or partial responses and may not hold up.
Potency is the fitted concentration of half-maximal effect; tags give direction and shape of the fitted curve.

Assay: Cytotoxic Profiling in NIH 3T3 Cell Line of Diverse Libraries Using Quantitative High-Throughput Screening; note: nearly all actives have a fitted effect of over 55% in size
Details: NIH 3T3 viability, CellTiter-Glo ATP luminescence, 48-72 h; series mostly up to 96.7 µM
How it was run: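 ATP-dependent luminescence (CellTiter-Glo) served as the viability signal for NIH 3T3 cells treated with compound for 48 or 72 hr at 37 °C.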
With `O=C(NCC1CCCCC1)C1CCc2nnc(C3CCN([S+](=O)([O-])c4ccccc4Cl)CC3)n21` (stereo not drawn) the Potency was inconclusive: 56.2 µM [inhibitor, partial curve, poor fit]. For `O=C([C@H]1CCCN1C(=O)C1CCCC1)N1CCC(N2CCOC2=O)CC1`, the Potency was “inactive”. For `COc1ccc2[nH]c3c(c2c1)CCNC31CCN(Cc2ccc(F)c(F)c2)CC1`, the Potency was active: 35.5 µM. With `COc1ccc(CC(=O)N2CNC(=O)C23CCN(C(=O)C2CCN(C)CC2)CC3)cc1` the Potency was “inactive”. In the case of `COc1ccc(-c2noc([C@@H]3CCCN3C3CCCCC3)n2)cn1`, the Potency is reported as inconclusive: 100 µM [inhibitor, single point]. In the case of `CCOC(=O)C1CCCN(C(=O)c2cc(-c3ccc(Cl)cc3Cl)c3nncn3n2)C1` (stereo not drawn), the Potency is reported as inconclusive: 50.1 µM [inhibitor, partial curve, poor fit]. For `Cc1cn2nc(C(=O)N3CCN(c4cccc(Cl)c4)CC3)cc2c(N2CCCC2)n1`, the Potency was inconclusive: 70.8 µM [inhibitor, single point]. With `CNC(=O)c1cc(C2CC2)nc2c1c(C1CCCN([S+](=O)([O-])c3ccc(C)cc3)C1)nn2C` (stereo not drawn) the Potency was inconclusive: 44.7 µM [inhibitor, partial curve, poor fit]. In the case of `CNC(=O)c1cc(C2CC2)nc2c1c(C1CCCN(C(=O)Nc3ccccc3)C1)nn2C` (stereo not drawn), the Potency is reported as inconclusive: 44.7 µM [inhibitor, partial curve, poor fit]. In the case of `CCOc1cc(=O)n2c(c1C(=O)Nc1ccc(CC)cc1)CCCC2`, the Potency is reported as “inactive”. With `O=C(NCCc1cnc[nH]1)C1CC(=O)N(c2n[nH]c3ccccc23)C1` (stereo not drawn) the Potency was “inactive”. For `Cc1ncsc1C1N(C2CCN(C(=O)COc3ccccc3)CC2)C(=O)C12CCCC2` (stereo not drawn), the Potency was inconclusive: 44.7 µM [inhibitor, partial curve, poor fit]. With `O=C(c1ccccc1Cl)N1CCCN(c2ccnc3ccnn23)CC1` the Potency was inconclusive: 35.5 µM [inhibitor, partial curve, poor fit]. In the case of `COc1ccc(CN2C(=O)[C@@H]3C[C@@H](CN3Cc3ccccc3C)Oc3ccccc32)cc1`, the Potency is reported as inconclusive: 56.2 µM [inhibitor, partial curve, poor fit]. For `CN(C)c1ccc(-c2cc(-c3ccc(=O)[nH]c3)c3cncn3c2)cc1`, the Potency was inconclusive: 79.4 µM [inhibitor, partial curve, poor fit]. In the case of `COc1cccc(C(=O)N2CCCN(c3cc(-c4ccc(C)c(C)c4)[nH]n3)CC2)c1OC`, the Potency is reported as inconclusive: 44.7 µM [inhibitor, partial curve, poor fit]. For `O=c1ncn(Cc2ccccc2)c2ccc(-c3ccoc3)nc12`, the Potency was inconclusive: 89.1 µM [inhibitor, partial curve, poor fit]. In the case of `CC(=O)N1CC2(Cc3ccccc3CN2C(C)=O)C1`, the Potency is reported as “inactive”. With `COc1ccccc1-c1nccc2c(=O)cc(N3CCOCC3)oc12` the Potency was active: 25.1 µM. For `CCOC(=O)[C@@H]1CN([S+](=O)([O-])Cc2ccccc2)[C@H]2c3ccc(OC)cc3O[C@@H]12`, the Potency was inconclusive: 50.1 µM [inhibitor, single point]. In the case of `COc1ccccc1Nc1ccnc(N2CCC(C(=O)NCc3ccccc3)CC2)n1`, the Potency is reported as inconclusive: 14.1 µM [inhibitor, partial curve, poor fit]. With `CCCNC(=O)N(C1CCOCC1)C1CCN(C(=O)c2ccc(C)s2)CC1` the Potency was inconclusive: 70.8 µM [inhibitor, single point]. For `CN1CCOc2c(C(=O)NCc3cccnc3)cc(-c3ccc(O)c(F)c3)cc21`, the Potency was inconclusive: 44.7 µM [inhibitor, full curve]. In the case of `O=C(NC1CCN(c2nccc(Nc3ccccc3F)n2)CC1)C1CCCC1`, the Potency is reported as inconclusive: 17.8 µM [inhibitor, partial curve]. In the case of `Cn1ncc2c(C(=O)NCc3cccnc3)cc(-c3cccnc3)nc21`, the Potency is reported as inconclusive: 44.7 µM [inhibitor, partial curve, poor fit]. With `COc1ccc(C(=O)NCC2Cn3cccc3C(=O)N2Cc2ccccc2)cn1` (stereo not drawn) the Potency was “inactive”. With `O=c1n(-c2ccc(Cl)cc2)nc2n1CCN([S+](=O)([O-])c1cccs1)C2` the Potency was inconclusive: 70.8 µM [inhibitor, single point]. For `Cc1ccc2c(n1)O[C@@H](COCc1ccccc1)CN(Cc1ccc3c(c1)OCO3)C2=O`, the Potency was active: 12.6 µM. In the case of `COc1ccccc1-c1[nH]nc2ncc(-c3ccnc(C)c3)nc12`, the Potency is reported as inconclusive: 15.8 µM [inhibitor, full curve, poor fit]. For `O=C(NCC1CCCCC1)c1nc2cccnc2n(C2CC2)c1=O`, the Potency was “inactive”. With `O=C1NCC2(CCN(C(=O)c3ccccc3)CC2)Oc2ccccc21` the Potency was “inactive”. For `Cc1noc(C)c1-c1cc2cc(CN(C)C)oc2c(Nc2cccnc2)n1`, the Potency was active: 25.1 µM. For `COc1ccccc1-c1cccc(CN2CCCC(C(=O)Nc3cccc(Cl)c3)C2)c1` (stereo not drawn), the Potency was active: 15.8 µM. In the case of `CCc1nc2c(c(-c3ccc(Cl)cc3)n1)CN(C(=O)c1ccccc1Cl)CC2`, the Potency is reported as inconclusive: 50.1 µM [inhibitor, partial curve, poor fit]. With `COc1ccc(CC(=O)N2CCN(C(=O)c3cccc(-c4cccc(OC)c4)c3)CC2)cc1` the Potency was inconclusive: 50.1 µM [inhibitor, partial curve, poor fit]. With `CCc1ccc(CN2C[C@@H]3C(=O)N(CCN4CCc5ccccc5C4)C(=O)[C@@H]3C2)cc1` the Potency was inconclusive: 56.2 µM [inhibitor, partial curve, poor fit]. With `Cc1cnn(-c2cc(N3CCC(n4cc(C5CCCC5)nn4)CC3)ncn2)c1` the Potency was inconclusive: 17.8 µM [inhibitor, full curve, poor fit]. In the case of `CCC(CC)N1CC(Oc2cccc(C(=O)NCC3CC3)c2)C1`, the Potency is reported as “inactive”. For `Cc1ccc(S(=O)(=O)N2CCCC(Cn3cnc4cccnc43)C2)cc1C` (stereo not drawn), the Potency was inconclusive: 39.8 µM [inhibitor, partial curve, poor fit]. In the case of `CC(=O)c1cc(CN2CCC(c3[nH]ncc3-c3ccccc3C)CC2)n(C)c1`, the Potency is reported as inconclusive: 79.4 µM [inhibitor, partial curve, poor fit]. With `COc1cc2c(cc1-c1cccc(C(F)(F)F)c1)OCC(C)(C)CC2CO` (stereo not drawn) the Potency was active: 28.2 µM. For `Cc1cccc(OCC(=O)N2CCC(N3C(=O)CCC3C(=O)NCc3ccccc3)CC2)c1` (stereo not drawn), the Potency was “inactive”. With `O=c1[nH]c(C2CCN(CC3CCCCC3)CC2)nn1Cc1ccccc1` the Potency was inconclusive: 70.8 µM [inhibitor, single point]. In the case of `O=C(C1CCN(C(=O)C2CCCC2)C1)N1CCC(c2nc3ncccc3[nH]2)CC1` (stereo not drawn), the Potency is reported as “inactive”. With `COC(=O)C1c2c(OC)ccc3c2C(=CC(C)(C)CO3)CN1Cc1ccccc1` (stereo not drawn) the Potency was inconclusive: 50.1 µM [inhibitor, partial curve, poor fit]. With `O=C(NC1CCN(c2cc(-c3ccc(F)cc3)[nH]n2)C1)c1ccccc1Cl` (stereo not drawn) the Potency was inconclusive: 50.1 µM [inhibitor, partial curve, poor fit]. With `COC(=O)c1ccc(NC(=O)N2CC(Oc3cccc(-c4nc(C)no4)c3)C2)cc1` the Potency was inconclusive: 39.8 µM [inhibitor, partial curve, poor fit]. With `O=C(NC1CCCCC1)c1nc2sccn2c1-c1ccccc1` the Potency was inconclusive: 70.8 µM [inhibitor, partial curve, poor fit]. In the case of `CCN1CC(C(=O)NCc2cccc(OCc3ccccc3)c2)CC1=O` (stereo not drawn), the Potency is reported as inconclusive: 44.7 µM [inhibitor, partial curve]. With `CC1Oc2ccc(NS(=O)(=O)c3cccc(Cl)c3)cc2CN(Cc2ccccc2F)C1=O` (stereo not drawn) the Potency was inconclusive: 44.7 µM [inhibitor, partial curve, poor fit]. In the case of `Cc1ccc(OCc2nc(C3CCNCC3)no2)cc1`, the Potency is reported as inconclusive: 50.1 µM [inhibitor, partial curve, poor fit]. For `O=C1Nc2ccccc2C2(CCN(C(=O)c3cccnc3)C2)O1` (stereo not drawn), the Potency was “inactive”. In the case of `COc1ccc(CNC(=O)CC[C@@H]2CNC(=O)[C@@H]3C[C@H](NCc4ccc(F)cc4)CN23)cc1`, the Potency is reported as “inactive”. In the case of `CCc1nc2c(c(-c3ccc(O)cc3)n1)CCN(C(=O)Cc1ccc(OC)cc1)CC2`, the Potency is reported as “inactive”. For `COc1cc(-c2cc3c(nc2OC)nc(CC2CC2)n3C)ccn1`, the Potency was inconclusive: 50.1 µM [inhibitor, partial curve, poor fit]. With `COc1ccc(C(=O)N2CCN(c3cc(C(F)(F)F)nc(C)n3)CC2)cc1OC` the Potency was “inactive”. For `C[S+](=O)([O-])NCc1nnc2n1C(C(=O)NCCc1ccccc1F)CC2` (stereo not drawn), the Potency was “inactive”. For `COCCOc1ccc(-c2ccnc(OC)c2C#N)cc1`, the Potency was inconclusive: 12.6 µM [inhibitor, full curve, poor fit]. With `O=C(NC1CCCCC1)C1CN(S(=O)(=O)c2cccc(F)c2)CC12CCOCC2` (stereo not drawn) the Potency was inconclusive: 50.1 µM [inhibitor, partial curve, poor fit]. In the case of `O=C(NCCc1ccc(Cl)cc1)c1ccc2nnc(-c3cccnc3)n2c1`, the Potency is reported as inconclusive: 39.8 µM [inhibitor, partial curve]. For `COc1ccccc1C(=O)N1CC(CNc2cccnc2)C2(C1)CN(c1ccccc1)C2` (stereo not drawn), the Potency was inconclusive: 89.1 µM [inhibitor, partial curve, poor fit]. With `O=C1[C@@H]2C[C@@H](CN2CC2CC2)Oc2ccccc2N1Cc1ccc(OC(F)(F)F)cc1` the Potency was active: 39.8 µM. For `COc1ccc(S(=O)(=O)N2C[C@@H]3C[C@H](C2)c2c(NC(=O)c4ccc5c(c4)OCO5)ccc(=O)n2C3)cc1`, the Potency was inconclusive: 56.2 µM [inhibitor, partial curve, poor fit].
